B1: human TLR4 ECD (protein)
chain: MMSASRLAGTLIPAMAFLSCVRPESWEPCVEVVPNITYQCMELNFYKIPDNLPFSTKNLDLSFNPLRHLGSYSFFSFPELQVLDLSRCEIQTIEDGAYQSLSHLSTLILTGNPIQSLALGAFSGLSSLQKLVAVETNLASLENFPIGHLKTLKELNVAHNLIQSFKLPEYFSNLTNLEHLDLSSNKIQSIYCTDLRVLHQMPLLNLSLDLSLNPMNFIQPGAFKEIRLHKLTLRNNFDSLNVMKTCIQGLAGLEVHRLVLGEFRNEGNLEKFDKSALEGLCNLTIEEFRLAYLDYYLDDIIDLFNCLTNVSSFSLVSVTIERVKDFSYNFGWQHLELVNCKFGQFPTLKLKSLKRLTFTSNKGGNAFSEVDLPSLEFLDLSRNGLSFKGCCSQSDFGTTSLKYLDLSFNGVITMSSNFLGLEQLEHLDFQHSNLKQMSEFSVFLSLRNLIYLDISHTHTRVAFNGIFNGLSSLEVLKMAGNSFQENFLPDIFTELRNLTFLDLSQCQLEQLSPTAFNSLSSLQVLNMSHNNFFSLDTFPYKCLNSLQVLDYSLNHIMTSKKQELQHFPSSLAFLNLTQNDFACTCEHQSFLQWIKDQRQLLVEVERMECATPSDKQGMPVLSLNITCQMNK
B2: human RAGE ECD (protein)
chain: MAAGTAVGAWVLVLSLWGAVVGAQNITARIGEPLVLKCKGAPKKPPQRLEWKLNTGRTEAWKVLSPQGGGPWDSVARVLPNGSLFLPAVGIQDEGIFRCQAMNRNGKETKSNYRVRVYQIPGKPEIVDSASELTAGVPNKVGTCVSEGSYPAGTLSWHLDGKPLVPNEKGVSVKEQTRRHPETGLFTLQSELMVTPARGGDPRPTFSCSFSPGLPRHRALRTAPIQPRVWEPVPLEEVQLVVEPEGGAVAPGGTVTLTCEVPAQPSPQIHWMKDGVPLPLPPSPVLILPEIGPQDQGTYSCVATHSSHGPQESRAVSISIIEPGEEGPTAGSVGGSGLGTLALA

Key:
[1] = molecular target: T1, human pCTS-L (human); test: SPR, pCTS-L immobilized, reference without mAb20
T1 chain: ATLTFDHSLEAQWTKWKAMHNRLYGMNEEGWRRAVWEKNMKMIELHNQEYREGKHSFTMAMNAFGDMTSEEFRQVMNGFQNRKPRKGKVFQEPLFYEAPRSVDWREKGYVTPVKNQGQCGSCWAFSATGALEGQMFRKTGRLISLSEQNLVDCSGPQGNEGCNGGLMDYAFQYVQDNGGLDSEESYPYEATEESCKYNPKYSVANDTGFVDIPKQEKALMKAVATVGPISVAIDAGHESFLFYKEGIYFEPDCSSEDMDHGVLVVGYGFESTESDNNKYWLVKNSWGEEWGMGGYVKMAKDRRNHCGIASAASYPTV

[2] = molecular target: T1, human pCTS-L; test: SPR, pCTS-L immobilized, pre-incubated with mAb20
[3] = molecular target: T1, human pCTS-L; test: SPR, pCTS-L immobilized

Binder	Kd [1] [nM]	Kd [2] [nM]	Kd [3] [nM]
B1	20.3	1140	20.2
B2	3.1	30.4	3.5
